# PMC4336329 (PLoS ONE, 2015)
# Screen size: about 310,000 compounds; about 14,000 (4.5%) showed an effect of 50% or more. Effects have a minus sign here. The list shows a part of the results.
# Biological target: human ether-à-go-go-related gene (hERG) potassium channel (human, UniProt Q12809)
# Test: primary screen, population patch clamp on CHO cells stably expressing hERG
# 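Also: peak tail current of the secondary pulse compared with the same well before compound.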
# Chain of human ether-à-go-go-related gene (hERG) potassium channel (Q12809 whole entry, looked up): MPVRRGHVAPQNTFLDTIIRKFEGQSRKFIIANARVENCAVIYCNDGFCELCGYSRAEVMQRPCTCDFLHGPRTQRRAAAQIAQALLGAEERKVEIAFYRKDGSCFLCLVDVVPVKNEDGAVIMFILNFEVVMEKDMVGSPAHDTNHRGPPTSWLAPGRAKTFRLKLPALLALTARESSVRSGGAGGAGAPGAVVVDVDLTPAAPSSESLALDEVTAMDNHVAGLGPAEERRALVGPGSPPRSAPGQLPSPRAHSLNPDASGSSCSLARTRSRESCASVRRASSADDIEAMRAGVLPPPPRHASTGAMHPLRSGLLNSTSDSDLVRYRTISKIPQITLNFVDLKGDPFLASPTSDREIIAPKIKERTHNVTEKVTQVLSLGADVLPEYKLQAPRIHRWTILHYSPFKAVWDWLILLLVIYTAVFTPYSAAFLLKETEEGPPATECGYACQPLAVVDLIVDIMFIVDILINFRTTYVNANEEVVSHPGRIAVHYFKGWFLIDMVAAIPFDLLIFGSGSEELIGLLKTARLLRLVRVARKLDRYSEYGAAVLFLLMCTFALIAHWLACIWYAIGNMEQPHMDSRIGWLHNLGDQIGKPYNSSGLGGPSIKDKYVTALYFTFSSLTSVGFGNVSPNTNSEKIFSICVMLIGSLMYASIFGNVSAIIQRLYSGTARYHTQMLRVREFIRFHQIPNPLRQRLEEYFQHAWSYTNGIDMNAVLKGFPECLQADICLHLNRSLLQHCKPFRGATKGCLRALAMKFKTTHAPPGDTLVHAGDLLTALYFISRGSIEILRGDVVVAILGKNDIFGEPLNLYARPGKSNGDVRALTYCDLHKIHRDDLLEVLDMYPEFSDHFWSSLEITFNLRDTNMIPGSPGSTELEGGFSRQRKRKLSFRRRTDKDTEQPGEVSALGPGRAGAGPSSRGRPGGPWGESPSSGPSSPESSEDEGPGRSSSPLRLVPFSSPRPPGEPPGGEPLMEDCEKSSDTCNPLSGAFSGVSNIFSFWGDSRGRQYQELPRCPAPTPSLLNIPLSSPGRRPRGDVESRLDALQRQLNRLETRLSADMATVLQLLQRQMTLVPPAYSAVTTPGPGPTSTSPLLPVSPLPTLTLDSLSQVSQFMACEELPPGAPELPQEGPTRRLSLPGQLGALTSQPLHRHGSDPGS
row,SMILES,"hERG current change (%, negative = inhibition) at 10uM [%]"
1,CCC(CC)c1nnc(NC(=O)c2cc([N+](=O)[O-])ccc2N2CCCCC2)s1,8.26
2,Oc1ccc(Br)cc1CNc1ccccn1,-15.7
3,COC(=O)c1ccc(OC)c(CN2CCCN(Cc3ccc(F)cc3)S2(=O)=O)c1,-10.2
4,CC(C)C1Cc2[nH]c(=O)c(C(=O)O)cc2CO1 (centres unmarked),-12.9
5,Cc1c(Cl)cccc1NC(CC(=O)c1ccccc1)C(=O)OCC(=O)c1cccs1 (centres unmarked),-5
6,CCS(=O)(=O)c1ccc(N)cc1.Cl,16
7,CSc1ncc(Sc2ccccc2)c(C(=O)O)n1,8.34
8,Cc1cc(Cl)ccc1OCC(=O)n1cc(C(=O)c2cc(Cl)ccc2O)cn1,5.34
9,Cc1ccccc1NC(=O)c1c(F)c(F)c(F)c(F)c1F,7.17
10,CC(C)CCNC(=O)C(c1cccnc1)N(CCc1ccccc1)C(=O)Cn1nnc2ccccc21 (centres unmarked),-1.9
11,O=C(N/N=C\c1ccc(Cl)s1)c1ccc(Cn2cccn2)o1,-57.2
12,CC(C)NS(=O)(=O)c1ccc(CCC(=O)Nc2ccc3c(c2)OCO3)cc1,1.66
13,COc1cc(C(=O)Nc2ccc(NC(=O)c3ccco3)nc2)cc(OC)c1OC,11.3
14,Cc1cc(NC(=O)C2CCCO2)ccc1Br (centres unmarked),9.44
15,c1ccc2c(-c3cc(C4CCNCC4)[nH]n3)cccc2c1,-16.2
16,Cc1cccc(C(=O)N[C@@H](C)C(=O)N2CCN(c3ncccn3)CC2)c1,-3.21
17,O=C(CCl)c1ccc2c(c1)CCN2C(=O)C1CCCCC1,10.7
18,O=C(Cc1cccc2ccccc12)N/N=C/c1ccc2cccc(O)c2n1,5.86
19,CCCCC/S(CC1CC1(Cl)Cl)=N\S(=O)(=O)c1ccc(C)cc1 (centres unmarked),15.8
20,O=C(NCc1cccs1)C1CCCN(c2ncccn2)C1 (centres unmarked),-3.75
21,Cc1ccc(CN(C(=O)c2cccs2)C2CCS(=O)(=O)C2)cc1 (centres unmarked),-46.5
22,CCN(CC)c1ccc2cc(-c3nc4ccccc4n3C)c(=O)oc2c1,22.9
23,Cc1cc(S(=O)(=O)N2CCOCC2)ccc1NC(=O)c1ccc(F)cc1,1.32

row,SMILES,"hERG current change (%, negative = inhibition) at 10uM [%]"
1,CCOC(=O)N1CCN(C(=O)CSc2nnc(-c3ccc(C)c(C)c3)o2)CC1,-8.27
2,O=C(Nc1nc(-c2nc3ccccc3s2)cs1)c1ccco1,8.82
3,S=c1[nH]nc(-c2ccco2)n1/N=C/c1cccc(Cl)c1,17.6
4,CC1CC(=S)Nc2ccccc2N1C(=O)Nc1ccccc1 (centres unmarked),4.1
5,CCOC(=O)C(C)Sc1cc(CS(=O)(=O)c2ccccc2)nc(-c2ccccc2)n1 (centres unmarked),15.9
6,COc1cc(C(=O)Nc2cc(-c3nc4cc(C)ccc4o3)ccc2C)cc(OC)c1OC,15
7,C[C@H](NC(=O)C1CCN(C(=O)[C@H](Cc2ccccc2)NC(=O)OC(C)(C)C)CC1)C(=O)O,4.15
8,Nc1nc2n(n1)C(c1ccccc1)CC(c1ccc(F)cc1)N2 (centres unmarked),-10.1
9,CC(C)C(=O)N1CCC2(CC1)Oc1ccc(F)cc1C(=O)C21CC(c2ccccc2)=NO1 (centres unmarked),-27.2
10,O=C(NCCCn1ccnc1)c1cc2ccccc2o1,-18.2
11,O=C(CCCOc1ccccc1)N1CCCc2ccccc21,-9.15
12,COCCNC(=O)c1cccc(C)c1[N+](=O)[O-],-2.91
13,O=C(NC1CC1)C1=C[C@H](c2ccc3c(c2)OCO3)C[C@H](OCc2ccc(CO)cc2)O1,-4.26
14,CC1CC(OCC(O)CN2CCN(Cc3ccccc3)CC2)CC(C)(C)C1.Cl (centres unmarked),-43.5
15,COc1cccc(C(=O)C2=NN(C(C)=O)CC2c2ccco2)c1 (centres unmarked),-15.8
16,Cc1nn(-c2ccccc2)c(N2CCCC2)c1/C=N/n1cnc2scc(-c3ccccc3)c2c1=O,-3.64
17,CNC(=S)N(CCc1c(C)[nH]c2ccc(OC)cc12)Cc1cccnc1,9.25
18,O=C(CSCc1ccccc1)N1CCN(S(=O)(=O)c2ccc(F)cc2)CC1,11.3
19,Cc1cc(NC2CCCCC2)nc2ccccc12,-17.5
20,CCCCOc1cccc(NC(=O)CSc2nccn2C)c1,-17.3
21,Cc1ccc(N2CCN(S(=O)(=O)c3nnc(NC(=O)c4ccco4)s3)CC2)cc1,15.6
22,Cc1ccc(NC2CCCN(C(=O)c3ccc(C)c(N4CCNC4=O)c3)C2)cc1C (centres unmarked),2.47
23,CC1SCC(NC(=O)c2ccccc2Cl)CS1 (centres unmarked),0.762

row,SMILES,"hERG current change (%, negative = inhibition) at 10uM [%]"
1,CN1C(=O)C(=Cc2ccccc2OCc2ccc(C(=O)O)cc2)C(=O)N(C)C1=O,16.8
2,CC(C)C[C@H](NC(=O)c1nc[nH]c1C(=O)NCC(=O)OC(C)(C)C)C(=O)OCc1ccccc1,15.3
3,Cc1ncc(CO)c(/C=N/NC(=S)Nc2ccc(C(C)C)cc2)c1O,10.6
4,CCCN1CCC(=O)N([C@H](CN=[N+]=[N-])CC(C)C)CC1,3.11
5,CCOC(=O)CNC(=O)/C=C/c1c(Cl)cccc1Cl,-1.61
6,c1cnc(-c2noc(CN3CCN(C4CCCC4)CC3)n2)cn1,18.7
7,Cc1ccc(C(=O)N/C(=C\Cl)P(=O)(c2ccccc2)c2ccccc2)cc1,10.8
8,COc1ccc(NC(=O)c2ccco2)cc1NC(=O)c1c(F)c(F)c(OC)c(F)c1F,-2.08
9,Cc1ccc(N=C2C(=O)Nc3ccc(Br)cc32)cc1,15.5
10,Cc1ccn2c(NC3CCCCC3)c(C(C)C)nc2c1,-34.4
11,Oc1ccc2ccccc2c1C=NCc1cn2ccsc2n1,2.12
12,Oc1cncc(Cc2ccccc2)c1,12.3
13,Cc1cccc2cc(COC(=O)C3CCCCC3)c(=O)[nH]c12,13.5
14,COc1cc(C(=O)NCc2nnc(SCC(=O)Nc3nccs3)o2)cc(OC)c1OC,7.04
15,CC(C)NC(=O)/C(C#N)=C/c1ccc2c(c1)OCCO2,-4.24
16,O=C(OC1CCCCC1=O)c1cccc(S(=O)(=O)NCc2ccccc2)c1 (centres unmarked),-44.6
17,CS(=O)(=O)N1CCC(CO)(Cc2ccccc2C(F)(F)F)CC1,3.31
18,O=C(Cc1ccccc1)N1CCN(C2CCCC2)CC1,0.401
19,O=C(CCN1CCc2ccccc2C1)Nc1ccc2c(c1)OCO2,-23.6
20,CCOC(=O)c1cc(CC)sc1/N=C/C1C(=O)CC(C)(C)CC1=O,14.9
21,Cc1ccc(-c2cc(C(=O)NCCCN3CCOCC3)c3ccc(Cl)c(C)c3n2)cc1,18.1
22,COc1ccc(CNC(=O)COC(=O)c2c(-c3c(F)cccc3Cl)noc2C)cc1OC,-6.07
23,CCCCN1CNC(=S)N(c2cc(C)ccc2C)C1,4.19

row,SMILES,"hERG current change (%, negative = inhibition) at 10uM [%]"
1,Cc1cc(C)nc(NC(=O)/C=C/c2ccc(Cl)cc2Cl)c1,-0.362
2,O=CNn1cnc2c(oc3nc(-c4ccccc4)cc(-c4ccco4)c32)c1=O,9.19
3,Cc1cc(-c2nnc(SCC(=O)Nc3ccccc3C)n2N)n[nH]1,-3.62
4,Cc1cccc(NC(=O)C2CC2c2ccccc2)c1C (centres unmarked),5.64
5,COc1cc(-c2nnc3n(CCc4ccccc4)c(=O)c4ccccc4n23)cc(OC)c1OC,-19.7
6,Cn1c(SCC(=O)N2CCCC2)nnc1-c1cnccn1,-21.3
7,CC(C)(CC(=O)O)CC(=O)Nc1ccc(Oc2ccc(C(C)(C)C)cc2)nc1,6.7
8,Cc1ccccc1N=Nc1c(O)n(C)c2ccccc12,2.46
9,Cc1cc(NC(=O)C2CC(c3cccc(Br)c3)=NO2)no1 (centres unmarked),-7.78
10,CCOC(=O)c1c(S(=O)(=O)N2CCCCCC2)c(C)n(C)c1C,1.2
11,N#CCCn1c(Cl)nc2ccccc21,9.23
12,CN(c1ccc(OCc2ccc([N+](=O)[O-])cc2)cc1)S(=O)(=O)c1ccccc1,4.61
13,COc1ccccc1C1/C(=C(/O)c2ccc(Cl)cc2)C(=O)C(=O)N1CCN1CCOCC1 (centres unmarked),12.3
14,Cc1oc2ccccc2c1CNC(=O)N(C)C,14.2
15,CCC1CCc2sc(C(=O)NCc3ccccn3)cc2C1 (centres unmarked),-3.79
16,O=C(Nc1ccc(N2CCN(c3ncccc3C(F)(F)F)CC2)nc1)c1cccs1,-3.28
17,COc1ccc(CCNC(=O)C2CCCN(Cc3nc(-c4ccccc4C)oc3C)C2)cc1OC (centres unmarked),-57.7
18,C[C@H](NC(=O)[C@@H]1Cc2ccccc2CN1)C(=O)NCC1CCC(C(=O)O)CC1.Cl (some centres unmarked),13.1
19,CSC1=NCCN1C(=O)c1c(F)cccc1F,2.34
20,O=c1c2cnn(-c3ccccc3)c2nc(-c2cccs2)n1-c1ccc(Cl)cc1,10.4
